In PubChem BioAssay AID1745853 (National Center for Advancing Translational Sciences (NCATS), 2022) one finds activity change, negative = inhibition data, which are given here for 30 compounds.

What all share (test): Primary Screen for Target Class Profiling of Small Molecule Inhibitors of Methyltransferases
For assay [1], the target named is Glycine N-methyltransferase (Homo sapiens) (UniProt Q14749). The note with it: purified enzyme, MTase-Glo SAH luminescence; measured here: GNMT inhibition; at 40 µM; stronger effect = lower value. Summed up:
(§1)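 Each enzyme was assayed with SAM and its substrate. SAH formation detected by MTase-Glo luminescence; single-point 40 uM screen[…].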

The target in assay [2] is Guanidinoacetate N-methyltransferase (Homo sapiens) (UniProt Q14353). The note with it: purified enzyme, MTase-Glo SAH luminescence; measured here: GAMT inhibition; at 40 µM; stronger effect = lower value. The gist of the method:
as §1

The target in assay [3] is Histamine N-methyltransferase (Homo sapiens) (UniProt P50135). The note with it: purified enzyme, MTase-Glo SAH luminescence; measured here: HNMT inhibition; at 40 µM; stronger effect = lower value. The gist of the method:
as §1

The target of assay [4] is Nicotinamide N-methyltransferase (Homo sapiens) (UniProt P40261). The note with it: purified enzyme, MTase-Glo SAH luminescence; measured here: NNMT inhibition; at 40 µM; stronger effect = lower value. Summed up:
as §1

The target in assay [5] is Phenylethanolamine N-methyltransferase (Homo sapiens) (UniProt P11086). The note with it: purified enzyme, MTase-Glo SAH luminescence; measured here: PNMT inhibition; at 40 µM; stronger effect = lower value. Summed up: as §1

This is one part of the list. Shown are side measurements of this screen, not its main read-out; they come without a call.
On the % scale 0 is the no-effect control and ±100 the full control effect.

For `CCC(C)NC(=O)c1ccc2c(=O)n(C3CC3)c3nn(CC(=O)NCc4ccccc4)c(=O)n3c2c1` (stereo not given), the activity change, negative = inhibition in assay [1] is -3.04%; in assay [2], 0%; in assay [3] it was 0.694%; in assay [4] it was -8.25%; in assay [5], -17.5%.

For `COc1ccc(OC)c(NS(=O)(=O)c2ccc3c(c2)NC(=O)C(C)C(=O)N3)c1` (stereo not given), the activity change, negative = inhibition in assay [1] is -1.79%; in assay [2], 2.17%; in assay [3], -2.21%; in assay [4] it was 4.6%; in assay [5], -5.76%.

On to `O=S(=O)(NC1CCC(c2cc(F)ccc2F)(S(=O)(=O)c2ccc(Cl)cc2)CC1)C(F)(F)F` (stereo not given), for which the activity change, negative = inhibition was 0.437% in assay [1]; 1.17% in assay [2]; 9.21% in assay [3]; -28.6% in assay [4]; -13.8% in assay [5].

Regarding `CNC(=O)[C@@H]1C[C@@H](O)CN1C1CCN(C(=O)CCc2nc3ccccc3s2)CC1`, the activity change, negative = inhibition in assay [1] was -4.39%; in assay [2] it was 0.25%; in assay [3] it was -2.09%; in assay [4], -3.43%; in assay [5], -7.48%.

Regarding `CC(C)CNC(=O)c1ccc2c(=O)n(C(C)C)c3nn(Cc4ccc(Cl)cc4)c(=O)n3c2c1`, the activity change, negative = inhibition in assay [1] was -1.38%; in assay [2], 0.588%; in assay [3], 6.52%; in assay [4], 1.81%; in assay [5] it was 3.33%.

Turning to `CC(C)c1cnn2c(NCc3ccccc3)cc(N[C@@H](CO)[C@H](O)CO)nc12`, the activity change, negative = inhibition in assay [1] was 3.37%; in assay [2] it was 5.85%; in assay [3] it was 10.9%; in assay [4], -9.25%; in assay [5], 8.01%.

On to `NS(=O)(=O)c1ccc(NC(=O)Nc2ccc(F)cc2)cc1`, for which the activity change, negative = inhibition in assay [1] was -2.21%; in assay [2] it was 4.4%; in assay [3] it was 10.3%; in assay [4], -10.3%; in assay [5], 2.58%.

For the compound `COCC(=O)NC1(Cc2cc(-c3ccc(OC)cc3)on2)COC1`, the activity change, negative = inhibition was -6.5% in assay [1]; -4.61% in assay [2]; -1.62% in assay [3]; -6.48% in assay [4]; 9.36% in assay [5].

Take `CC(C)CCNC(=O)C1c2c(n(C)c3ccccc23)SCC(=O)N1Cc1ccc(F)cc1` (stereo not given): the activity change, negative = inhibition is 7.86% in assay [1]; 4.3% in assay [2]; 3.5% in assay [3]; -5.77% in assay [4]; 6.32% in assay [5].

Regarding `C=CCn1c(=O)c2ccc(C(=O)NC(C)C)cc2n2c(=O)n(CC(=O)Nc3cc(C)cc(C)c3)nc12`, the activity change, negative = inhibition in assay [1] was determined as 4.64%; in assay [2] it was 0.404%; in assay [3], 5.57%; in assay [4], 6.26%; in assay [5], 3.85%.

With `CC1(C(=O)NC2CCCCC2)Cn2c(nc3ccccc32)C(=O)N1Cc1ccccc1Cl` (stereo not given), the activity change, negative = inhibition in assay [1] is 3.55%; in assay [2], 4.67%; in assay [3] it was 6.92%; in assay [4], -2.69%; in assay [5], 1.8%.

As to `CC(=O)OC1C(O)CC2(C)C(CCC(C)C23Cc2c(O)cc(CO)c(C=O)c2O3)C1(C)C` (stereo not given), the activity change, negative = inhibition in assay [1] is -2.52%; in assay [2], 3.76%; in assay [3], 8.65%; in assay [4] it was -14.4%; in assay [5], -8.75%.

Turning to `COC(=O)CCNC(=O)N1Cc2c(sc3c2CCCC3)-n2cccc2C1c1cccc(C)c1` (stereo not given), the activity change, negative = inhibition in assay [1] is -3%; in assay [2], 0%; in assay [3], 0.723%; in assay [4] it was -6.79%; in assay [5] it was -3.32%.

Regarding `CNC(=O)[C@@H]1CN(C(=O)Cn2nc(C(F)(F)F)cc2C)C[C@H]1CO`, the activity change, negative = inhibition was -1.6% in assay [1]; 2.25% in assay [2]; 1.48% in assay [3]; 4.13% in assay [4]; 15.5% in assay [5].

Turning to `CCc1ccc(NC(=O)Cn2nc3n(c2=O)CCCC3)cc1`, the activity change, negative = inhibition in assay [1] was 0.866%; in assay [2], -4.4%; in assay [3], 1.14%; in assay [4] it was -0.228%; in assay [5] it was 6.3%.

On to `CCC1(O)CC2CN(CCc3c([nH]c4ccccc34)[C@@](C(=O)OC)(c3cc4c(cc3OC)N(C=O)C3[C@]45CCN4CC=C[C@@](CC)([C@@H](OC(C)=O)[C@]3(O)C(=O)OC)[C@H]45)C2)C1` (stereo not given in full), for which the activity change, negative = inhibition in assay [1] is -4.23%; in assay [2], 13.5%; in assay [3], 12.3%; in assay [4], -1.15%; in assay [5] it was 2.43%.

Consider `Cc1ccc(CNC(=O)Cn2nc3n(C)c(=O)c4ccc(C(=O)NC5CCCCC5)cc4n3c2=O)cc1`, for which the activity change, negative = inhibition turned out to be 0.358% in assay [1]; 4.84% in assay [2]; 3.39% in assay [3]; 2.27% in assay [4]; 1.34% in assay [5].

Turning to `Cc1ccc(C)c(Cn2nc3n(Cc4ccccc4)c(=O)c4ccc(C(=O)NC(C)C)cc4n3c2=O)c1`, the activity change, negative = inhibition in assay [1] stood at 5.41%; in assay [2] it was 4.03%; in assay [3], 5.17%; in assay [4] it was 1.03%; in assay [5], 2.01%.

Turning to `O=C(CC1COCCN1)N1CCC2(CCC(=O)N(CCc3ccccc3)C2)CC1` (stereo not given), the activity change, negative = inhibition was -3.67% in assay [1]; -1.32% in assay [2]; -2.71% in assay [3]; -2.27% in assay [4]; -5.21% in assay [5].

As to `CSc1nccc(N2CCC(c3nccn3Cc3cccnc3)CC2)n1`, the activity change, negative = inhibition in assay [1] is -3.71%; in assay [2], -0.976%; in assay [3], -14.2%; in assay [4], -7.65%; in assay [5], 1.16%.

As for `CCCCOc1cc2oc(=O)cc(-c3ccccc3)c2cc1Cl`, the activity change, negative = inhibition in assay [1] was -0.627%; in assay [2], -0.476%; in assay [3] it was -0.488%; in assay [4], -6.23%; in assay [5], -4.46%.

Regarding `CC(C)CN1C(=O)N(Cc2ccccn2)C(=O)C12CCN(Cc1ccc3c(c1)CCO3)CC2`, the activity change, negative = inhibition in assay [1] was -4.47%; in assay [2] it was 0.575%; in assay [3] it was 0.859%; in assay [4], -5.88%; in assay [5], 1.94%.

With `Cc1ccc(NC(=O)Cn2nc3n(C(C)C)c(=O)c4ccc(C(=O)NC5CCCC5)cc4n3c2=O)cc1`, the activity change, negative = inhibition in assay [1] is 3.34%; in assay [2] it was 1.55%; in assay [3], 2.38%; in assay [4], -1.06%; in assay [5] it was -2.69%.

`Cc1cnc(CC2CCCN(S(=O)(=O)c3ccccc3)C2)n1CC1CC1` (stereo not given): the activity change, negative = inhibition was -3.6% in assay [1]; -1.89% in assay [2]; -18.4% in assay [3]; -29.3% in assay [4]; -18.5% in assay [5].

For the compound `O=C(O)c1cc([N+](=O)[O-])ccc1NCCCc1ccccc1`, the activity change, negative = inhibition was -19.3% in assay [1]; 6.07% in assay [2]; -1.97% in assay [3]; -7.63% in assay [4]; 5.44% in assay [5].

Consider `O=C(OCC(O)CO[C@@H]1O[C@H](C(=O)O)[C@@H](O)[C@H](O)[C@H]1O)c1ccccc1` (stereo not given in full), for which the activity change, negative = inhibition in assay [1] was 4.56%; in assay [2] it was 6.11%; in assay [3], 8.97%; in assay [4], -5.08%; in assay [5], 0.998%.

In the case of `O=C(c1csc(-c2cccs2)n1)N1CCC2(CCCO2)CC1`, the activity change, negative = inhibition was -15.2% in assay [1]; -16.4% in assay [2]; -13.7% in assay [3]; -18% in assay [4]; -17.6% in assay [5].

Regarding `CCOc1ccc(CN2C(=O)c3cc(C(=O)OC)nn3CC2(C)C(=O)NC2CCCCCC2)cc1` (stereo not given), the activity change, negative = inhibition in assay [1] is -5.34%; in assay [2], -0.495%; in assay [3] it was -9.54%; in assay [4], -4.96%; in assay [5], -0.784%.

On to `COCC1(c2nc(C3CCOCC3)nn2-c2ccccc2)CCC1`, for which the activity change, negative = inhibition in assay [1] is -3.41%; in assay [2], -9.87%; in assay [3], -3.38%; in assay [4], -15.4%; in assay [5], 7.59%.

For the compound `Cc1ccc(C)c(NC(=O)CN2C(=O)C(c3ccccc3)=NC23CCCC3)c1`, the activity change, negative = inhibition in assay [1] was -0.833%; in assay [2], 2.31%; in assay [3] it was 0.578%; in assay [4] it was 1.94%; in assay [5], 0.65%.
